The other results are listed elsewhere or left out.

The record followed here is the antibiotic and cytotoxicity screens of Wong et al. (2023).

The subject of one assay is HSkMC. Put plainly: cytotoxicity call (relative viability < 0.9). The conditions noted are these: 10 µM.
In the next assay the test system is HepG2. Put plainly: cytotoxicity call (relative viability < 0.9). The conditions noted are these: 10 µM.
The next assay concerns S. aureus RN4220. Put plainly: growth inhibition call (relative growth <= 0.2). The conditions noted are these: 50 µM.

As for `CN(C)CCCNC(=O)C[C@@H]1CC[C@H]2[C@H](COc3ccc(NC(=O)NC4CCCC4)cc3C(=O)N2C)O1`, the cytotoxicity call with HSkMC and in the assay with HepG2 was “inactive” each time. In the assay with S. aureus RN4220, the growth inhibition call is “inactive”.

`CC1CCC2C(C)C(O)OC3OC4(C)CCC1C32OO4` (stereo unspecified): the cytotoxicity call with HSkMC was “inactive”. Also, the cytotoxicity call in the assay on HepG2 was “active”. The growth inhibition call in the assay on S. aureus RN4220 is “inactive”.

For the compound `O=C1O[C@H](c2ccccc2)[C@H](c2ccccc2)N2[C@H]1[C@@H](C(=O)Nc1nc3ccccc3s1)[C@]1(C(=O)Nc3ccc(C#CCCO)cc31)[C@H]2c1ccccc1OCCO`, the cytotoxicity call in the assay with HSkMC and in the assay with HepG2 was “inactive” throughout. The growth inhibition call in the assay on S. aureus RN4220 was “inactive”.

For `Cc1noc(C)c1NC(=O)Nc1ccc2c(c1)C(=O)N([C@@H](C)CO)C[C@H](C)[C@H](CN(C)C(=O)NC1CCCCC1)OCCCC[C@@H](C)O2`, the cytotoxicity call with HSkMC and in the assay with HepG2 was “inactive” each time. The growth inhibition call in the assay on S. aureus RN4220 is “inactive”.

Turning to `Cc1noc(C)c1S(=O)(=O)Nc1ccc2c(c1)C(=O)N([C@H](C)CO)C[C@@H](C)[C@@H](CN(C)C)OCCCC[C@@H](C)O2`, the cytotoxicity call with HSkMC and with HepG2 was “inactive” in each case. For the same compound, the growth inhibition call with S. aureus RN4220 is “inactive”.

As to `C[C@@H]1CCCCO[C@@H](CN(C)Cc2ccccc2)[C@@H](C)CN([C@H](C)CO)C(=O)c2cc(NC(=O)NC3CCCCC3)ccc2O1`, the cytotoxicity call in the assay with HSkMC and with HepG2 was “inactive” in each case. Besides, in the assay on S. aureus RN4220, the growth inhibition call is “inactive”.

With `C[C@@H]1CN([C@@H](C)CO)S(=O)(=O)c2ccc(-c3ccccc3F)cc2O[C@@H]1CN(C)Cc1cncnc1`, the cytotoxicity call with HSkMC and in the assay with HepG2 was “inactive” throughout. In addition, in the assay on S. aureus RN4220, the growth inhibition call is “inactive”.

As for `COc1ccc(CN(C)C[C@@H]2OCCCC[C@H](C)Oc3ccc(NC(=O)Nc4ccc(OC)cc4)cc3C(=O)N([C@H](C)CO)C[C@H]2C)cc1`, the cytotoxicity call in the assay with HSkMC and in the assay on HepG2 was “inactive” in each case. Further, the growth inhibition call with S. aureus RN4220 is “inactive”.

For `C[C@@H]1CCCCO[C@H](CN(C)S(=O)(=O)c2ccc(F)cc2)[C@H](C)CN([C@H](C)CO)C(=O)c2cc(NC(=O)NC3CCCCC3)ccc2O1`, the cytotoxicity call with HSkMC and in the assay with HepG2 was “inactive” throughout. In the assay on S. aureus RN4220, the growth inhibition call is “inactive”.

Take `COC(=O)CCCCCCC(=O)Nc1ccc([C@H]2O[C@@H](CN(C)Cc3ccccc3)C[C@H](c3ccccc3)O2)cc1`: the cytotoxicity call in the assay on HSkMC and in the assay with HepG2 was “inactive” throughout. Besides, in the assay on S. aureus RN4220, the growth inhibition call is “inactive”.

For the compound `COc1ccc2c3c(n(c2c1)C)[C@@H](CO)N(Cc1cc(cc(c1)OC)OC)C[C@]13CCN(CC1)C(=O)Nc1cccc(c1)F`, the cytotoxicity call with HSkMC and in the assay with HepG2 was “inactive” each time. Further, the growth inhibition call in the assay on S. aureus RN4220 is “inactive”.

For the compound `CC(C)NC(=O)N(C)C[C@@H]1Oc2ccc(NC(=O)Nc3ccc4c(c3)OCO4)cc2C(=O)N([C@H](C)CO)C[C@H]1C`, the cytotoxicity call with HSkMC and in the assay on HepG2 was “inactive” in each case. Moreover, the growth inhibition call in the assay with S. aureus RN4220 was “inactive”.

Take `C[C@@H]1CCCCO[C@H](CN(C)S(=O)(=O)c2cccs2)[C@H](C)CN([C@@H](C)CO)C(=O)c2cc(NC(=O)Nc3ccc(F)cc3)ccc2O1`: the cytotoxicity call in the assay on HSkMC and with HepG2 was “inactive” each time. Further, in the assay with S. aureus RN4220, the growth inhibition call is “inactive”.

As for `C[C@H]1CN([C@@H](C)CO)C(=O)c2cccc(NC(=O)c3ccc(-c4nccs4)cc3)c2O[C@@H]1CN(C)Cc1ccc2c(c1)OCO2`, the cytotoxicity call in the assay with HSkMC and with HepG2 was “inactive” throughout. Further, the growth inhibition call in the assay with S. aureus RN4220 was “inactive”.

As for `COc1ccc2c3c([nH]c2c1)[C@H](CO)N(C[C@]13CN(C1)S(=O)(=O)c1ccccc1)C(=O)c1cnccn1`, the cytotoxicity call in the assay on HSkMC and in the assay on HepG2 was “inactive” in each case. Also, the growth inhibition call in the assay with S. aureus RN4220 is “inactive”.

For `COc1ccccc1S(=O)(=O)N(C)C[C@@H]1OCc2cnnn2CCCC(=O)N([C@@H](C)CO)C[C@@H]1C`, the cytotoxicity call in the assay on HSkMC and in the assay with HepG2 was “inactive” throughout. Further, the growth inhibition call with S. aureus RN4220 is “inactive”.

With `C[C@@H]1CN([C@H](C)CO[Si](C)(C)C(C)(C)C)C(=O)c2cc(NC(=O)Nc3ccccc3)ccc2O[C@@H](C)CCCCO[C@H]1CN(C)S(=O)(=O)c1ccc(F)cc1`, the cytotoxicity call in the assay with HSkMC and with HepG2 was “inactive” each time. The growth inhibition call with S. aureus RN4220 is “inactive”.

As for `CO[C@@H]1CN(C)C(=O)c2cc(NC(=O)Nc3cccc(Cl)c3)ccc2OC[C@@H](C)N(C(=O)Nc2c(C)noc2C)C[C@H]1C`, the cytotoxicity call in the assay on HSkMC and in the assay with HepG2 was “inactive” each time. Besides, the growth inhibition call in the assay on S. aureus RN4220 is “inactive”.

Turning to `Cc1noc(C)c1NC(=O)N(C)C[C@H]1Oc2ccc(NC(=O)NC(C)C)cc2CC(=O)N([C@H](C)CO)C[C@@H]1C`, the cytotoxicity call in the assay on HSkMC and with HepG2 was “inactive” each time. Also, the growth inhibition call with S. aureus RN4220 was “inactive”.

In the case of `C[C@@H]1CCCCO[C@H](CN(C)C(=O)CCCN(C)C)[C@H](C)CN([C@@H](C)CO)C(=O)c2cc(NS(=O)(=O)c3cn(C)cn3)ccc2O1`, the cytotoxicity call in the assay on HSkMC and in the assay on HepG2 was “inactive” throughout. Also, the growth inhibition call with S. aureus RN4220 is “inactive”.

Regarding `C[C@@H]1CN([C@H](C)CO)C(=O)c2cc(NC(=O)C3CCCCC3)ccc2O[C@@H](C)CCCCO[C@H]1CN(C)C(=O)Cc1ccccc1`, the cytotoxicity call in the assay with HSkMC and in the assay with HepG2 was “inactive” in each case. Moreover, the growth inhibition call in the assay on S. aureus RN4220 was “inactive”.

For the compound `CC(C)NC(=O)Nc1ccc2c(c1)C(=O)N([C@H](C)CO)C[C@H](C)[C@H](CN(C)CC1CCCCC1)OCCCC[C@H](C)O2`, the cytotoxicity call with HSkMC and with HepG2 was “inactive” throughout. Further, in the assay on S. aureus RN4220, the growth inhibition call was “inactive”.

As to `C[C@H]1CN([C@@H](C)CO)C(=O)c2c(c3ccccc3n2C)-c2ccccc2CO[C@H]1CN(C)S(C)(=O)=O`, the cytotoxicity call in the assay on HSkMC and in the assay with HepG2 was “inactive” in each case. The growth inhibition call with S. aureus RN4220 is “inactive”.

As for `C[C@H]1CCCCO[C@H](CN(C)Cc2ccc(C(F)(F)F)cc2)[C@@H](C)CN([C@@H](C)CO)C(=O)c2cc(NC(=O)CCC(F)(F)F)ccc2O1`, the cytotoxicity call in the assay on HSkMC was “inactive”. Moreover, the cytotoxicity call in the assay with HepG2 was “active”. The growth inhibition call in the assay with S. aureus RN4220 was “inactive”.

In the case of `COc1cc(O)c2c(c1)C(=O)c1cc(C)cc(O)c1C2=O`, the cytotoxicity call in the assay with HSkMC and in the assay on HepG2 was “inactive” each time. For the same compound, in the assay on S. aureus RN4220, the growth inhibition call was “inactive”.

With `C[C@@H]1CCCCO[C@H](CN(C)Cc2ccc3c(c2)OCO3)[C@@H](C)CN([C@H](C)CO)C(=O)c2cc(NC(=O)CCC(F)(F)F)ccc2O1`, the cytotoxicity call in the assay with HSkMC and in the assay on HepG2 was “inactive” in each case. In addition, in the assay on S. aureus RN4220, the growth inhibition call is “inactive”.

Take `C[C@@H]1CCCCO[C@@H](CN(C)S(=O)(=O)c2cn(C)cn2)[C@@H](C)CN([C@H](C)CO)C(=O)c2cc(NC(=O)CCCN(C)C)ccc2O1`: the cytotoxicity call in the assay on HSkMC (human skeletal muscle cells) and in the assay with HepG2 was “inactive” each time. The growth inhibition call in the assay with S. aureus RN4220 is “inactive”.
